Measured values as given in PubChem BioAssay AID1457 (National Center for Advancing Translational Sciences (NCATS), 2008).
Out of some 210,000 compounds screened, about 730 (0.35%) were called active. Inconclusive results, whose numbers are uncertain, are shown with a selection of clear calls. Calls come from the whole dose curve; as a rule, active = well fitted inhibition curve with a large enough effect; inconclusive = small, poorly fitted or top-dose-only effect; inactive = no such curve, though single readings can be large or run the other way. Potencies beside an inconclusive call are fits to weak or partial responses and may not hold up.

experiment: qHTS Assay for Identifying the Cell-Membrane Permeable IMPase Inhibitors: Potentiation with Lithium; settings: CHO-M1 cells, IP1 TR-FRET (IP-One), carbachol + lithium; series mostly up to 59.4 µM; activity, negative = IMPase inhibition: at the top concentration; note: nearly all actives have a fitted effect of over 50% in size;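 for activity, negative = IMPase inhibition: plate controls were basal vehicle for no effect and high inhibitor control for full effect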
Summary of the method: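 Lithium-sensitised IP1 accumulation assay; M1-expressing CHO cells treated 30 min at 37C with compound. Competitive antibody detection by time-resolved FRET followed a 10 min room-temperature lysis step.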
Potency is the fitted concentration of half-maximal effect.

SMILES | activity, negative = IMPase inhibition | Potency
Cc1noc(C)c1CSc1nc2ccccc2c(=O)n1-c1ccc(Cl)cc1 | inactive: 43.9% [at 38.3 µM] | 
Nc1cc(-c2nc3ncccc3o2)ccc1Cl |  | inconclusive: 28.2 µM [inhibitor, single point]
C=CCNC(=O)Cc1c(OC)ccc2cc(Br)ccc12 |  | inconclusive: 11.2 µM [inhibitor, partial curve]
COCCCNC(=O)c1ccc(C2SCC(=O)N2Cc2ccco2)cc1 (configuration not stated) |  | inconclusive: 5.01 µM [inhibitor, single point]
CCN1CCCc2cc(CN(CCN3CCOCC3)C(=S)Nc3ccc(OC)cc3)ccc21 |  | inconclusive: 10 µM [inhibitor, single point]
O=C(CSc1nnc(-c2ccco2)n1Cc1ccccc1)NC(=O)NCc1ccccc1 | inactive: 7.65% [at 38.3 µM] | 
Cc1cc2cc3c(cc2nc1SCC(=O)O)OCCO3 |  | inconclusive: 28.2 µM [inhibitor, single point]
C=CCSc1nnc(NC(=O)c2ccc(S(=O)(=O)NCC3CCCO3)cc2)s1 (configuration not stated) | inactive: 14% [at 38.3 µM] | 
Cc1cc(C)nc(SCc2nnc(SCC(=O)Nc3cc(C(F)(F)F)ccc3Cl)o2)n1 | inactive: 13% [at 38.3 µM] | 
O=C1C(=O)N(Cc2cccnc2)C(c2ccccn2)/C1=C(/O)c1ccc(Br)cc1 (configuration not stated) |  | inconclusive: 11.2 µM [inhibitor, partial curve]
O=C(O)c1cc(NCc2cccs2)ccc1N1CCOCC1 | inactive: 19.9% [at 38.3 µM] | 
COc1ccc(OC)c(NC(=O)C2CCN(c3cc(-c4ccccc4)nc4ncnn34)CC2)c1 |  | inconclusive: 28.2 µM [inhibitor, partial curve, poor fit]
O=C(Nc1cnc2ccccc2c1)c1cccc(-n2cnnn2)c1 |  | inconclusive: 28.2 µM [inhibitor, single point]
COC(=O)c1sc2nc(C)nc(SCC(=O)N3CCC(C(=O)O)CC3)c2c1C |  | inconclusive: 10 µM [inhibitor, partial curve]
COC(=O)c1ccc(Nc2cc(C)nc(-c3ccccc3O)n2)cc1 |  | inconclusive: 28.2 µM [inhibitor, single point]
CCOC(=O)c1c(C)nc(-c2ccccc2)nc1NC(=O)CC |  | inconclusive: 11.2 µM [inhibitor, partial curve]
O=C(Nc1ccc2oc(-c3ccncc3)nc2c1)c1ccc(F)cc1 |  | inconclusive: 12.6 µM [inhibitor, partial curve]
Cn1c(/C(C#N)=C(\O)COc2ccc3ccccc3c2)nc2ccccc21 |  | active: 7.08 µM
COc1ccccc1-c1nnc(NC(=O)OCC(C)C)s1 |  | active: 11.2 µM
COC(=O)c1cccc(Oc2nc3c(c(=O)n(C)c(=O)n3C)n2C(C)C)c1 |  | inconclusive: 0.398 µM [inhibitor, full curve, poor fit]
COc1cccc(Cn2nnc(C(=O)Nc3ccc(C)cc3)c2N)c1 |  | inconclusive: 28.2 µM [inhibitor, single point]
C=C(C(=O)O)[C@@H]1CC[C@@]2(C)CCC[C@](C)(O)[C@@H]2C1 | inactive: 4.87% | 
COc1ccc(C(=O)/C=C/c2ccccc2)c(O)c1 | inactive: -1.52% | 
CC(C)(C)NC(=O)Cn1c(SCC(=O)NC2CCCCC2)nc2ccccc21 |  | inconclusive: 0.501 µM [inhibitor, partial curve, poor fit]

SMILES | activity, negative = IMPase inhibition | Potency
COc1cccc(-c2cncnc2N(C)Cc2ccco2)c1 | inactive: 5.81% | 
O=C(O)C(Oc1ccc2c3c(c(=O)oc2c1)CCC3)c1ccccc1 (configuration not stated) | inactive: 14.2% [at 38.3 µM] | 
CCOCC(=O)N1CCN(c2ccc(F)cc2)CC1 | inactive: -17.6% [at 38.3 µM] | 
Cc1cc2nc(-c3ccc(SCC(=O)N4CCOCC4)nc3)[nH]c2cc1C |  | inconclusive: 11.2 µM [inhibitor, single point]
Cc1ccc2sc(NC(=O)CSc3nc(C)cc(C)c3C#N)nc2c1 |  | inconclusive: 12.6 µM [inhibitor, single point]
CCOC(=O)c1c(N)sc(C(N)=O)c1C | inactive: -10.4% [at 38.3 µM] | 
O=C(COc1c(Br)cc(Br)c2cccnc12)N1CCc2ccccc2C1 |  | inconclusive: 12.6 µM [inhibitor, single point]
Cc1cc(=S)c2cccc(C)c2[nH]1 |  | inconclusive: 12.6 µM [inhibitor, partial curve]
COc1ccccc1CNC(=O)c1nn(-c2ccc(C)cc2)c(=O)c2c1c1ccccc1n2C |  | inconclusive: 28.2 µM [inhibitor, single point]
COc1ccc(-n2nc(C(=O)NCc3ccco3)c3ccccc3c2=O)cc1 |  | inconclusive: 28.2 µM [inhibitor, single point]
COc1ncc2nc(-c3cccs3)c(=O)n(-c3ccccc3)c2n1 |  | inconclusive: 14.1 µM [inhibitor, single point]
CC[n+]1c(C)cc2c(sc3ccccc32)c1C | inactive: 8.55% | 
Cc1nn(-c2ccccc2)c(Cl)c1C(=O)Nc1nnc(C2CCCC2)s1 | inactive: 16.8% [at 38.3 µM] | 
CNC(=S)N(Cc1ccc(OC)cc1)Cc1cc2cc(C)ccc2[nH]c1=O |  | inconclusive: 22.4 µM [inhibitor, single point]
CC1CCN(c2ccccc2NC(=S)NC(=O)c2ccc(-c3cccc([N+](=O)[O-])c3)o2)CC1 | inactive: -12.3% [at 38.3 µM] | 
COc1cc(OC)cc(-c2nnc(SCC(=O)N3CCOCC3)o2)c1 | inactive: -1.16% [at 38.3 µM] | 
Cc1ccc(C2C(C#N)=C(N)SC(N)=C2C#N)o1 |  | inconclusive: 28.2 µM [inhibitor, single point]
CCOc1ccc2c(c1)nc(SCC(=O)c1ccc(Br)s1)n2C |  | inconclusive: 10 µM [inhibitor, partial curve]
CCOc1cc(C2CC(=O)N3CN(C4CCCCC4)CSC3=C2C#N)ccc1O (configuration not stated) |  | inconclusive: 28.2 µM [inhibitor, single point]
CN1CC[C@H](CN2c3ccccc3Sc3ccccc32)C1 | inactive: 39.4% | 
COc1ccc(-n2nc(C(=O)NCC(=O)NCc3ccc(F)cc3)c3ccccc3c2=O)c(OC)c1 |  | inconclusive: 11.2 µM [inhibitor, partial curve, poor fit]
O=S(=O)(O)c1ccc(N2N=C(c3ccccc3)CC2c2ccccc2)cc1 (configuration not stated) |  | inconclusive: 11.2 µM [inhibitor, partial curve]
O=C(NC1CCCC1)c1ccc(Br)s1 |  | inconclusive: 28.2 µM [inhibitor, single point]
